Reference: paper PMC4336329 (PLoS ONE, 2015)
Out of some 310,000 compounds screened, about 2,200 (0.71%) showed an effect of 50% or more. The effect is printed as a negative number. The list shows a part of the results.

Each compound was assayed against human ether-à-go-go-related gene (hERG) potassium channel (human, UniProt Q12809) (assay: primary screen, population patch clamp on CHO cells stably expressing hERG).
Sequence of human ether-à-go-go-related gene (hERG) potassium channel (Q12809 whole entry, looked up): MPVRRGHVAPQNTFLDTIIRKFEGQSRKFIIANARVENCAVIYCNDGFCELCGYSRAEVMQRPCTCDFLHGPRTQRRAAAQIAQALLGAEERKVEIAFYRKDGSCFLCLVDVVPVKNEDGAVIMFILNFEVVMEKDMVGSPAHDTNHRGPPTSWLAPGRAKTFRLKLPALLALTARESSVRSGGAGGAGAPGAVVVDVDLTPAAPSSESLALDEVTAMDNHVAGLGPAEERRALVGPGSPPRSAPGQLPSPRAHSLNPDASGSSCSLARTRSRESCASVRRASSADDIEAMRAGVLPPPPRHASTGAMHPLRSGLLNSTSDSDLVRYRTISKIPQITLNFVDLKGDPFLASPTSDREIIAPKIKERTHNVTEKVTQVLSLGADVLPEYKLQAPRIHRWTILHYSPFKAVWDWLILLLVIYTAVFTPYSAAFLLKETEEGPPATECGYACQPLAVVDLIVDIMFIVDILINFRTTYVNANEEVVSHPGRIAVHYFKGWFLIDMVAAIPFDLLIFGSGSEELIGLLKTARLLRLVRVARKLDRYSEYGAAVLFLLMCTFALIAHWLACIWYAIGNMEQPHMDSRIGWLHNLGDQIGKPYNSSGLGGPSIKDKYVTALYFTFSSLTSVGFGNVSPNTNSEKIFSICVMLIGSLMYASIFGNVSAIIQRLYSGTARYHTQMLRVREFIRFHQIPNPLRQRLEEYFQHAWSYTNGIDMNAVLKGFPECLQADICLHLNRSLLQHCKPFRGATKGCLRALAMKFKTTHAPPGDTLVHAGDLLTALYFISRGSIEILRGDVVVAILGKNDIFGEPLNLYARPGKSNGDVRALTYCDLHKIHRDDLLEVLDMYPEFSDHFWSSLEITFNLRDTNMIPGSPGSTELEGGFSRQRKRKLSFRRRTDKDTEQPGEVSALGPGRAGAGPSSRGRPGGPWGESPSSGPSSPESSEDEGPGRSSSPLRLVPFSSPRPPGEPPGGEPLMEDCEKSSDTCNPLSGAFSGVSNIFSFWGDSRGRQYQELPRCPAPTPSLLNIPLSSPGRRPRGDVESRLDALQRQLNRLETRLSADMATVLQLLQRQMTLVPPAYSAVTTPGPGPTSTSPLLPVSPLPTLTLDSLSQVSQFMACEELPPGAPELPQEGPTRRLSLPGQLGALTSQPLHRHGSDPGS

| Compound | hERG current change (%, negative = inhibition) at 1uM |
| --- | --- |
| COc1ccc(C(=O)NNC(=O)C(NC(=O)c2cc(OC)cc(OC)c2)C(C)C)cc1 (stereo not shown) | 8.39% |
| COc1ccccc1CN1CC(C(=O)NC2(c3ccccc3)CC2)CCC1=O (stereo not shown) | 6.13% |
| Cc1ccc(OCC(=O)NCCNC(=O)c2ccco2)cc1C | 9.46% |
| CCOC(=O)Nc1nnc(Cc2ccc(Cl)c(Cl)c2)s1 | 11.5% |
| CC(=O)Nc1ccc(S(=O)(=O)Nc2cccn(Cc3ccc(C)cc3)c2=O)cc1 | 8.89% |
| COc1cc2oc(=O)c3c(c2cc1OCC(=O)c1c(C)n(C)c2ccccc12)CCCC3 | 1.11% |
| CS(=O)(=O)N(CC(=O)Nc1ccccc1Sc1ccccc1)c1ccc(F)cc1 | 4.54% |
| Cc1ccc(-c2nc3sc4c(c3c(=O)n2N)CC(C)(C)OC4)cc1 | 17% |
| Cc1oc(-c2cccc(F)c2)nc1CN1CCCN(C(=O)c2ccco2)CC1 | -10.4% |
| O=C(Nc1ccccc1)Nc1ccccc1NS(=O)(=O)c1cccs1 | 10.8% |
| COc1ccc(NC(=S)NC23CN4CN(CN(C4)C2)C3)cc1 | 15.7% |
| COc1ccc(C(=O)SC2=NCCS2)cc1 | 7.04% |
| CCOCCCNC(=O)C1(O)c2cc(Br)ccc2NC(=O)N1c1cccc(OC)c1 (stereo not shown) | 12.7% |
| Cc1cc(C)nc(SC/C=C/c2ccccc2)n1.Cl | 18.5% |
| COc1ccc(OC(C)C(=O)N2CC(C)OC(C)C2)cc1 (stereo not shown) | 2.55% |
| Cc1ccc(C(=O)NC(=S)Nc2ccc3[nH]c(=O)[nH]c3c2)cc1 | 1.16% |
| Cc1nc2ccc(NC(=S)NCCCO)cc2nc1C | 13.6% |
| C/C(=N\NC(=O)c1c(Cl)c(C)nn1C)c1ccc(NC(=O)COc2ccc(Cl)cc2C)cc1 | 10% |
| COc1ccc2[nH]c(=O)c(CN(C(=O)c3ccccn3)C3CCCCC3)cc2c1 | 10.1% |
| Cc1ccc(OCc2n[nH]c(=S)n2C2CCCCC2)cc1 | 16.8% |
| Cn1cc(C(=O)c2cccc(Cl)c2Cl)cc1C(=O)O | 14.4% |
| CN(C)CCCn1c2c(c(SCC(=O)Nc3ccc4c(c3)OCO4)nc1=O)CCC2 | 7.55% |
| COc1ccc(Cn2nnnc2C(C(C)C)N2CCN(c3ccccc3OC)CC2)cc1 (stereo not shown) | -15.5% |
| CC(=O)O[C@@H]1/C=C/[C@](C)(O)C[C@@H](C)C/C=C/[C@H]2[C@H](O)C(C)=C(C)[C@H]3[C@H](Cc4ccccc4)NC(=O)[C@@]123 | 9.1% |
| O=C(COc1ccc2ccccc2c1)Nc1ccc(S(=O)(=O)N2CCCCCC2)cc1 | 9.96% |
| C[C@]12C(=O)N(c3ccc(Cl)cc3)C(=O)N1[C@H]1c3ccccc3OC[C@@H]1[C@H]2c1ccccc1 | 14% |
| CCN(CC(=O)NCc1ccc(F)cc1)c1ccc(S(C)(=O)=O)cc1[N+](=O)[O-] | -5.44% |
| Cc1cccc(N=C2NN=C(c3ccccc3F)CS2)c1C | 13.7% |

| Compound | hERG current change (%, negative = inhibition) at 1uM |
| --- | --- |
| Cc1cc(NC(=O)c2ccc(Cl)cc2)n(CCC#N)n1 | 16.4% |
| CC(C)(C)OC(=O)N1CCC[C@H]1C(=O)NCC1CCC(C(=O)O)CC1 (stereo partly shown) | -2.6% |
| Cc1cc(C)n2nc(C(=O)N/N=C/c3ccccc3Cl)nc2n1 | 9.68% |
| Cc1nn(Cc2ccc(C(=O)NN)o2)c(C)c1Cl | 12.6% |
| COC(=O)CC1C(=O)NCCN1C(=O)Nc1cccc(Cl)c1 (stereo not shown) | 9.11% |
| O=C(NCCCN1CCOCC1)c1ccc(Br)cc1 | 7.74% |
| CC(OC(=O)/C=C/c1ccc2ccccc2n1)C(=O)Nc1ccc(S(N)(=O)=O)cc1 (stereo not shown) | 11.8% |
| CN1CCN(c2cc([N+](=O)[O-])ccc2Cl)CC1 | 1.37% |
| CC(C(=O)Nc1ccc(O)cc1)c1cccc(C(=O)c2ccccc2)c1 (stereo not shown) | 14.2% |
| CC1(C)Cc2ccccc2-c2nnc(-c3ccccc3)n21 | 8.69% |
| CC(=O)N1CCc2cc(S(=O)(=O)CCC(=O)N3CCN(c4ccccc4F)CC3)ccc21 | 11.7% |
| Cn1ccnc1C(=O)c1cc(SCC(=O)NC2CC2)nc2ccccc12 | 3.89% |
| COc1ccc(OCC(=O)c2c(O)c3ccccc3oc2=O)cc1 | -6.2% |
| O=C(O)C(=O)O.O=C(c1cccnc1)N1CCN(Cc2cccc(Br)c2)CC1 | -4.82% |
| CC1CCN(S(=O)(=O)c2ccc3c(c2)n(C)c(=O)n3C)CC1 | 0.216% |
| O=C(CSCC(=O)OCC(=O)c1ccc(Br)cc1)Nc1ccc(Br)cc1 | 1.8% |
| CC(C)C[C@H](NC(=O)c1[nH]cnc1C(=O)Nc1ccc(Cl)cc1)C(=O)OC(C)(C)C | 17.6% |
| CCOc1ccc(NC(=O)CN(C)C(=O)c2cc([N+](=O)[O-])ccc2N2CCOCC2)cc1OCC | -16.7% |
| CNC[C@@H](Cc1ccccc1)NC[C@@H](CC1CCCCC1)NCCCc1ccccc1 | 4.99% |
| CC(=O)c1ccc(S(=O)(=O)N2CCCC(N(C)CCc3ccccn3)C2)cc1 (stereo not shown) | -44.4% |
| CCOc1ccc(/C=N/OCC(=O)NCc2cccs2)cc1 | 5.8% |
| CN(CCc1cnn(C)c1)Cc1cn(C)nc1-c1ccc2c(c1)OCCO2 | 6.16% |
| CC(C)NC(=O)CC(=O)N/N=C/c1ccc(Br)cc1 | 9.15% |
| COc1ccc(OC)c(Cc2nnc(CCC(=O)NC3CCCCC3)o2)c1 | 16.9% |
| Cc1ccc(/C=C2\SC(=S)N(CCC(=O)NNC(=O)c3cccc(O)c3)C2=O)cc1 | 10.7% |
| CC1=CC(C)(C)N(C(=O)C(C)N2C(=O)c3ccccc3C2=O)c2ccc(C)cc21 (stereo not shown) | 15.1% |
| O=C(c1ccco1)[C@@H]1[C@@H]2C(=O)N(c3ccc(F)cc3)C(=O)[C@@H]2C2c3ccccc3C=CN21 (stereo partly shown) | 13.4% |
